Reference: the supplement of paper PMC5998384

Tests used:
HeLa Kyoto [1] = assay: thermal stability score vs G1/S (z-score of summed log2 fold changes over temperatures); higher = more thermally stable than in G1/S
HeLa Kyoto [2] = assay: melting temperature (median over replicates), in situ; higher = more thermally stable
HeLa Kyoto [3] = assay: solubility in G1/S (NP-40 vs SDS abundance) (log2 ratio); higher = more soluble; conditions: cell cycle stage: G1/S
HeLa Kyoto [4] = assay: solubility change mitosis vs G1/S (difference of NP-40 vs SDS log2 ratios) (log2 ratio difference); higher = more soluble in mitosis
[5] = cell cycle stage: early G1 (4.5 h after nocodazole release)
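For melting temperature (median over replicates), in situ in this document: HeLa Kyoto cells synchronized by double thymidine or nocodazole block, proteins quantified by TMT10plex mass spectrometry, three independent biological replicates.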
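For solubility change mitosis vs G1/S (difference of NP-40 vs SDS log2 ratios) in this document: synchronized HeLa Kyoto cells (double thymidine block for G1/S, nocodazole release for mitosis), protein amounts in NP-40 versus SDS lysates quantified by mass spectrometry, three biological replicates.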
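For solubility in G1/S (NP-40 vs SDS abundance) in this document: HeLa Kyoto cells arrested at G1/S by double thymidine block, proteins quantified by TMT10plex mass spectrometry in mild NP-40 versus SDS extracts, three biological replicates.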
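For thermal stability score vs G1/S (z-score of summed log2 fold changes over temperatures) in this document: synchronized HeLa Kyoto cells, proteins quantified by TMT10plex mass spectrometry, three biological replicates, mitosis taken 0.5 h after nocodazole release, G1/S directly after double thymidine block.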

In the case of “MSFPPHLNRPPMGIPALPPGIPPPQFPGFPPPVPPGTPMIPVPMSIMAPAPTVLVPTVSMVGKHLGARKDHPGLKAKENDENCGPTTTVFVGNISEKASDMLIRQLLAKCGLVLSWKRVQGASGKLQAFGFCEYKEPESTLRALRLLHDLQIGEKKLLVKVDAKTKAQLDEWKAKKKASNGNARPETVTNDDEEALDEETKRRDQMIKGAIEVLIREYSSELNAPSQESDSHPRKKKKEKKEDIFRRFPVAPLIPYPLITKEDINAIEMEEDKRDLISREISKFRDTHKKLEEEKGKKEKERQEIEKERRERERERERERERREREREREREREREKEKERERERERDRDRDRTKERDRDRDRERDRDRDRERSSDRNKDRSRSREKSRDREREREREREREREREREREREREREREREREREREKDKKRDREEDEEDAYERRKLERKLREKEAAYQERLKNWEIRERKKTREYEKEAEREEERRREMAKEAKRLKEFLEDYDDDRDDPKYYRGSALQKRLRDREKEMEADERDRKREKEELEEIRQRLLAEGHPDPDAELQRMEQEAERRRQPQIKQEPESEEEEEEKQEKEEKREEPMEEEEEPEQKPCLKPTLRPISSAPSVSSASGNATPNTPGDESPCGIIIPHENSPDQQQPEEHRPKIGLSLKLGASNSPGQPNSVKRKKLPVDSVFNKFEDEDSDDVPRKRKLVPLDYGEDDKNATKGTVNTEEKRKHIKSLIEKIPTAKPELFAYPLDWSIVDSILMERRIRPWINKKIIEYIGEEEATLVDFVCSKVMAHSSPQSILDDVAMVLDEEAEVFIVKMWRLLIYETEAKKIGLVK [RBM25]”, the thermal stability score (HeLa Kyoto [1]; [5]) is reported as -1.1, the thermal stability score (HeLa Kyoto [1]; cell cycle stage: mitosis) is reported as 1.79 and the melting temperature (HeLa Kyoto [2]; cell cycle stage: G1/S) is reported as 48.2 °C. For the same substance, the melting temperature (HeLa Kyoto [2]; cell cycle stage: mitosis) was 50.1 °C, the “solubility in G1/S (log2)” value (HeLa Kyoto [3]) was -1.08 and the “solubility change mitosis (log2)” value (HeLa Kyoto [4]) was 0.779.
“MSALCWGRGAAGLKRALRPCGRPGLPGKEGTAGGVCGPRRSSSASPQEQDQDRRKDWGHVELLEVLQARVRQLQAESVSEVVVNRVDVARLPECGSGDGSLQPPRKVQMGAKDATPVPCGRWAKILEKDKRTQQMRMQRLKAKLQMPFQSGEFKALTRRLQVEPRLLSKQMAGCLEDCTRQAPESPWEEQLARLLQEAPGKLSLDVEQAPSGQHSQAQLSGQQQRLLAFFKCCLLTDQLPLAHHLLVVHHGQRQKRKLLTLDMYNAVMLGWARQGAFKELVYVLFMVKDAGLTPDLLSYAAALQCMGRQDQDAGTIERCLEQMSQEGLKLQALFTAVLLSEEDRATVLKAVHKVKPTFSLPPQLPPPVNTSKLLRDVYAKDGRVSYPKLHLPLKTLQCLFEKQLHMELASRVCVVSVEKPTLPSKEVKHARKTLKTLRDQWEKALCRALRETKNRLEREVYEGRFSLYPFLCLLDEREVVRMLLQVLQALPAQGESFTTLARELSARTFSRHVVQRQRVSGQVQALQNHYRKYLCLLASDAEVPEPCLPRQYWEELGAPEALREQPWPLPVQMELGKLLAEMLVQATQMPCSLDKPHRSSRLVPVLYHVYSFRNVQQIGILKPHPAYVQLLEKAAEPTLTFEAVDVPMLCPPLPWTSPHSGAFLLSPTKLMRTVEGATQHQELLETCPPTALHGALDALTQLGNCAWRVNGRVLDLVLQLFQAKGCPQLGVPAPPSEAPQPPEAHLPHSAAPARKAELRRELAHCQKVAREMHSLRAEALYRLSLAQHLRDRVFWLPHNMDFRGRTYPCPPHFNHLGSDVARALLEFAQGRPLGPHGLDWLKIHLVNLTGLKKREPLRKRLAFAEEVMDDILDSADQPLTGRKWWMGAEEPWQTLACCMEVANAVRASDPAAYVSHLPVHQDGSCNGLQHYAALGRDSVGAASVNLEPSDVPQDVYSGVAAQVEVFRRQDAQRGMRVAQVLEGFITRKVVKQTVMTVVYGVTRYGGRLQIEKRLRELSDFPQEFVWEASHYLVRQVFKSLQEMFSGTRAIQHWLTESARLISHMGSVVEWVTPLGVPVIQPYRLDSKVKQIGGGIQSITYTHNGDISRKPNTRKQKNGFPPNFIHSLDSSHMMLTALHCYRKGLTFVSVHDCYWTHAADVSVMNQVCREQFVRLHSEPILQDLSRFLVKRFCSEPQKILEASQLKETLQAVPKPGAFDLEQVKRSTYFFS [POLRMT]” gave a thermal stability score (HeLa Kyoto [1]; [5]) of -0.749, a thermal stability score (HeLa Kyoto [1]; cell cycle stage: mitosis) of 1.6 and a melting temperature (HeLa Kyoto [2]; cell cycle stage: G1/S) of 50.5 °C. For the same substance, the melting temperature (HeLa Kyoto [2]; cell cycle stage: mitosis) was 49.2 °C, the “solubility in G1/S (log2)” value (HeLa Kyoto [3]) was -0.535 and the “solubility change mitosis (log2)” value (HeLa Kyoto [4]) was -0.0655.
STAT3 (sequence left out) showed a thermal stability score (HeLa Kyoto [1]; [5]) of 0.472, a thermal stability score (HeLa Kyoto [1]; cell cycle stage: mitosis) of 2.7 and a melting temperature (HeLa Kyoto [2]; cell cycle stage: G1/S) of 48.8 °C. The melting temperature (HeLa Kyoto [2]; cell cycle stage: mitosis) was 49.8 °C, the “solubility in G1/S (log2)” value (HeLa Kyoto [3]) was -0.0459 and the “solubility change mitosis (log2)” value (HeLa Kyoto [4]) was -0.168.
